Test results reported in the supplement of paper PMC8728848.
The list shows a part of the results.

How the values were obtained:
Test in all cases: glycan array binding signal (z-score within array); higher = stronger binding
Conditions in all cases: glycan notation: IUPAC condensed, linker removed
[1] = molecular target: Neu5Ac(a2-3)Gal(b1-4)GlcNAc(b1-2)[Neu5Ac(a2-3)Gal(b1-4)GlcNAc(b1-6)]Man(a1-6)[Neu5Ac(a2-3)Gal(b1-4)GlcNAc(b1-2)Man(a1-3)][GlcNAc(b1-4)]Man(b1-4)GlcNAc(b1-4)GlcNAc
Outline: (§1)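 Columns mapping to the same glycan were averaged after glycan names were converted to IUPAC-condensed notation. The data come from 3228 arrays in the Consortium for Functional Glycomics database, limited to those with an available protein sequence. Binding is reported as a within-array Z-score averaged across arrays of one protein sequence and across linkers.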

[2] = molecular target: Neu5Ac(a2-3)Gal(b1-4)GlcNAc(b1-3)Gal
Outline: as §1

[3] = molecular target: Neu5Ac(a2-3)Gal(b1-4)GlcNAc(b1-3)Gal(b1-3)GlcNAc
Outline: as §1

[4] = molecular target: Neu5Ac(a2-3)Gal(b1-4)GlcNAc(b1-3)Gal(b1-4)GlcNAc
Outline: as §1

[5] = molecular target: Neu5Ac(a2-3)Gal(b1-4)GlcNAc(b1-3)Gal(b1-4)GlcNAc(b1-2)Man(a1-3)[Neu5Ac(a2-3)Gal(b1-4)GlcNAc(b1-3)Gal(b1-4)GlcNAc(b1-2)Man(a1-6)]Man(b1-4)GlcNAc(b1-4)GlcNAc
Outline: as §1

[6] = molecular target: Neu5Ac(a2-3)Gal(b1-4)GlcNAc(b1-3)Gal(b1-4)GlcNAc(b1-3)Gal(b1-4)GlcNAc
Outline: as §1

[7] = molecular target: Neu5Ac(a2-3)Gal(b1-4)GlcNAc(b1-3)Gal(b1-4)GlcNAc(b1-3)Gal(b1-4)GlcNAc(b1-2)Man(a1-3)[Neu5Ac(a2-3)Gal(b1-4)GlcNAc(b1-3)Gal(b1-4)GlcNAc(b1-3)Gal(b1-4)GlcNAc(b1-2)Man(a1-6)]GalNAc
Outline: as §1

[8] = molecular target: Neu5Ac(a2-3)Gal(b1-4)GlcNAc(b1-3)Gal(b1-4)GlcNAc(b1-3)GalNAc
Outline: as §1

[9] = molecular target: Neu5Ac(a2-3)Gal(b1-4)GlcNAc(b1-3)Gal(b1-4)GlcNAc(b1-3)[Neu5Ac(a2-3)Gal(b1-4)GlcNAc(b1-3)Gal(b1-4)GlcNAc(b1-6)]GalNAc
Outline: as §1

[10] = molecular target: Neu5Ac(a2-3)Gal(b1-4)GlcNAc(b1-3)Gal(b1-4)GlcNAc(b1-6)[Gal(b1-3)]GalNAc
Outline: as §1

[11] = molecular target: Neu5Ac(a2-3)Gal(b1-4)GlcNAc(b1-3)Gal(b1-4)[Fuc(a1-3)]GlcNAc
Outline: as §1

[12] = molecular target: Neu5Ac(a2-3)Gal(b1-4)GlcNAc(b1-3)GalNAc
Outline: as §1

[13] = molecular target: Neu5Ac(a2-3)Gal(b1-4)GlcNAc(b1-3)[Neu5Ac(a2-3)Gal(b1-4)GlcNAc(b1-6)]GalNAc
Outline: as §1

[14] = molecular target: Neu5Ac(a2-3)Gal(b1-4)GlcNAc(b1-6)GalNAc
Outline: as §1

[15] = molecular target: Neu5Ac(a2-3)Gal(b1-4)GlcNAc(b1-6)[Gal(b1-3)]GalNAc
Outline: as §1

[16] = molecular target: Neu5Ac(a2-3)Gal(b1-4)GlcNAc(b1-6)[Neu5Ac(a2-3)Gal(b1-3)]GalNAc
Outline: as §1

[17] = molecular target: Neu5Ac(a2-3)Gal(b1-4)GlcNAc6S
Outline: as §1

[18] = molecular target: Neu5Ac(a2-3)Gal(b1-4)[Fuc(a1-3)]GlcNAc
Outline: as §1

[19] = molecular target: Neu5Ac(a2-3)Gal(b1-4)[Fuc(a1-3)]GlcNAc(b1-2)Man
Outline: as §1

[20] = molecular target: Neu5Ac(a2-3)Gal(b1-4)[Fuc(a1-3)]GlcNAc(b1-3)Gal
Outline: as §1

[21] = molecular target: Neu5Ac(a2-3)Gal(b1-4)[Fuc(a1-3)]GlcNAc(b1-3)Gal(b1-4)GlcNAc
Outline: as §1

[22] = molecular target: Neu5Ac(a2-3)Gal(b1-4)[Fuc(a1-3)]GlcNAc(b1-3)Gal(b1-4)[Fuc(a1-3)]GlcNAc(b1-3)Gal(b1-4)[Fuc(a1-3)]GlcNAc
Outline: as §1

[23] = molecular target: Neu5Ac(a2-3)Gal(b1-4)[Fuc(a1-3)]GlcNAc(b1-3)GalNAc
Outline: as §1

[24] = molecular target: Neu5Ac(a2-3)Gal(b1-4)[Fuc(a1-3)]GlcNAc(b1-6)[Gal(b1-3)]GalNAc
Outline: as §1

[25] = molecular target: Neu5Ac(a2-3)Gal(b1-4)[Fuc(a1-3)]GlcNAc(b1-6)[Neu5Ac(a2-3)Gal(b1-3)]GalNAc
Outline: as §1

[26] = molecular target: Neu5Ac(a2-3)Gal(b1-4)[Fuc(a1-3)]GlcNAc6S
Outline: as §1

[27] = molecular target: Neu5Ac(a2-3)Gal6S(b1-4)GlcNAc
Outline: as §1

[28] = molecular target: Neu5Ac(a2-3)Gal6S(b1-4)[Fuc(a1-3)]GlcNAc
Outline: as §1

[29] = molecular target: Neu5Ac(a2-3)GalNAc
Outline: as §1

[30] = molecular target: Neu5Ac(a2-3)GalNAc(b1-4)GlcNAc
Outline: as §1

[31] = molecular target: Neu5Ac(a2-3)[GalNAc(b1-4)]Gal(b1-4)Glc
Outline: as §1

[32] = molecular target: Neu5Ac(a2-3)[GalNAc(b1-4)]Gal(b1-4)GlcNAc
Outline: as §1

[33] = molecular target: Neu5Ac(a2-3)[GalNAc(b1-4)]Gal(b1-4)GlcNAc(b1-3)GalNAc
Outline: as §1

[34] = molecular target: Neu5Ac(a2-3)[Neu5Ac(a2-6)]GalNAc
Outline: as §1

[35] = molecular target: Neu5Ac(a2-6)Gal
Outline: as §1

[36] = molecular target: Neu5Ac(a2-6)Gal(b1-3)GlcNAc(b1-3)[Gal(b1-4)GlcNAc(b1-6)]Gal(b1-4)Glc
Outline: as §1

[37] = molecular target: Neu5Ac(a2-6)Gal(b1-4)Glc
Outline: as §1

[38] = molecular target: Neu5Ac(a2-6)Gal(b1-4)GlcNAc
Outline: as §1

B1: LTL (Lotus tetragonolobus), P19664 (protein)
chain: VSFNYTEFKDDGSLILQGDAKIWTDGRLAMPTDPLVNNPKTTRSAGRALYATPVPIWDSATGNVASFVTSFNFLFVIRELKYTPTDGLVFFLAPVGTEIPSGSTGGFLGIFDGSNGFNQFVAVEFDSYHNIWDPKSLRSSHVGIDVNSIMSLKAVNWNRVSGSLEKATIIYDSQTNILSVVMTSQNGQITTIYGTIDLKTVLPEKVSVGFSATTGNPEREKHDIYSWSFTSTLKEPEEQA
glycan array binding signal (z-score) [1]: -0.267 | glycan array binding signal (z-score) [2]: -0.219 | glycan array binding signal (z-score) [3]: 0.176 | glycan array binding signal (z-score) [4]: -0.188 | glycan array binding signal (z-score) [5]: 2.77 | glycan array binding signal (z-score) [6]: -0.035 | glycan array binding signal (z-score) [7]: 5.64 | glycan array binding signal (z-score) [8]: -0.214 | glycan array binding signal (z-score) [9]: 0.512 | glycan array binding signal (z-score) [10]: 0.74 | glycan array binding signal (z-score) [11]: 0.099 | glycan array binding signal (z-score) [12]: -0.196 | glycan array binding signal (z-score) [13]: -0.264 | glycan array binding signal (z-score) [14]: -0.465 | glycan array binding signal (z-score) [15]: 0.214 | glycan array binding signal (z-score) [16]: -0.237 | glycan array binding signal (z-score) [17]: -0.145 | glycan array binding signal (z-score) [18]: -0.31 | glycan array binding signal (z-score) [19]: -0.237 | glycan array binding signal (z-score) [20]: -0.157 | glycan array binding signal (z-score) [21]: -0.086 | glycan array binding signal (z-score) [22]: 0.103 | glycan array binding signal (z-score) [23]: 0.385 | glycan array binding signal (z-score) [24]: 1.2 | glycan array binding signal (z-score) [25]: 0.815 | glycan array binding signal (z-score) [26]: -0.154 | glycan array binding signal (z-score) [27]: 1.81 | glycan array binding signal (z-score) [28]: 2.84 | glycan array binding signal (z-score) [29]: -0.335 | glycan array binding signal (z-score) [30]: -0.428 | glycan array binding signal (z-score) [31]: -0.257 | glycan array binding signal (z-score) [32]: -0.24 | glycan array binding signal (z-score) [33]: 1.14 | glycan array binding signal (z-score) [34]: -0.433 | glycan array binding signal (z-score) [35]: -0.162 | glycan array binding signal (z-score) [36]: -0.162 | glycan array binding signal (z-score) [37]: -0.011 | glycan array binding signal (z-score) [38]: -0.18
